# Results: the supplement of paper PMC8728848
# The list shows a part of the results.
# B1: MPA (Maclura pomifera), P18674 (protein)
# chain: GVTFDDGAYTGIREINFEYNSETAIGGLRVTYDLNGMPFVAEDHKSFITGFKPVKISLEFPSEYIVEVSGYVGKVEGYTVIRSLTFKTNKQTYGPYGVTNGTPFSLPIENGLIVGFKGSIGYWLDYFSIYLSL
# Legend:
# Assay in all cases: glycan array binding signal (z-score within array); higher = stronger binding
# Details in all cases: glycan notation: IUPAC condensed, linker removed
# [1] = target: Fuc(a1-2)[Gal(a1-3)]Gal(b1-4)GlcNAc(b1-2)Man(a1-3)[Fuc(a1-2)[Gal(a1-3)]Gal(b1-4)GlcNAc(b1-2)Man(a1-6)]Man(b1-4)GlcNAc(b1-4)GlcNAc
# In short: (§1)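 Negative Z-scores can be read as non-binding. The Z-score is calculated within each array and then averaged across arrays of one protein sequence at different concentrations or buffers and across linkers. Arrays, 3228 in all, were curated from the Consortium for Functional Glycomics database and kept only where the protein sequence was available.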
# [2] = target: Fuc(a1-2)[Gal(a1-3)]Gal(b1-4)GlcNAc(b1-2)Man(a1-3)[Fuc(a1-2)[Gal(a1-3)]Gal(b1-4)GlcNAc(b1-2)Man(a1-6)]Man(b1-4)GlcNAc(b1-4)[Fuc(a1-6)]GlcNAc
# In short: as §1
# [3] = target: Fuc(a1-2)[Gal(a1-3)]Gal(b1-4)GlcNAc(b1-3)GalNAc
# In short: as §1
# [4] = target: Fuc(a1-2)[Gal(a1-3)]Gal(b1-4)GlcNAc(b1-6)GalNAc
# In short: as §1
# [5] = target: Fuc(a1-2)[Gal(a1-3)]Gal(b1-4)[Fuc(a1-3)]Glc
# In short: as §1
# [6] = target: Fuc(a1-2)[Gal(a1-3)]Gal(b1-4)[Fuc(a1-3)]GlcNAc
# In short: as §1
# [7] = target: Fuc(a1-2)[Gal(a1-3)]Gal(b1-4)[Fuc(a1-3)]GlcNAc(b1-3)GalNAc
# In short: as §1
# [8] = target: Fuc(a1-2)[Gal(a1-4)]Gal(b1-4)GlcNAc
# In short: as §1
# [9] = target: Fuc(a1-2)[GalNAc(a1-3)]Gal
# In short: as §1
# [10] = target: Fuc(a1-2)[GalNAc(a1-3)]Gal(b1-3)GalNAc(a1-3)[Fuc(a1-2)]Gal(b1-4)GlcNAc
# In short: as §1
# [11] = target: Fuc(a1-2)[GalNAc(a1-3)]Gal(b1-3)GalNAc(b1-3)Gal(a1-4)Gal(b1-4)Glc
# In short: as §1
# [12] = target: Fuc(a1-2)[GalNAc(a1-3)]Gal(b1-3)GlcNAc
# In short: as §1
# [13] = target: Fuc(a1-2)[GalNAc(a1-3)]Gal(b1-3)GlcNAc(b1-2)Man(a1-3)[Fuc(a1-2)[GalNAc(a1-3)]Gal(b1-3)GlcNAc(b1-2)Man(a1-6)]Man(b1-4)GlcNAc(b1-4)GlcNAc
# In short: as §1
# [14] = target: Fuc(a1-2)[GalNAc(a1-3)]Gal(b1-3)GlcNAc(b1-2)Man(a1-3)[Fuc(a1-2)[GalNAc(a1-3)]Gal(b1-3)GlcNAc(b1-2)Man(a1-6)]Man(b1-4)GlcNAc(b1-4)[Fuc(a1-6)]GlcNAc
# In short: as §1
# [15] = target: Fuc(a1-2)[GalNAc(a1-3)]Gal(b1-3)GlcNAc(b1-3)GalNAc
# In short: as §1
# [16] = target: Fuc(a1-2)[GalNAc(a1-3)]Gal(b1-3)GlcNAc(b1-6)GalNAc
# In short: as §1
# [17] = target: Fuc(a1-2)[GalNAc(a1-3)]Gal(b1-4)Glc
# In short: as §1
# [18] = target: Fuc(a1-2)[GalNAc(a1-3)]Gal(b1-4)GlcNAc
# In short: as §1
# [19] = target: Fuc(a1-2)[GalNAc(a1-3)]Gal(b1-4)GlcNAc(b1-2)Man
# In short: as §1
# [20] = target: Fuc(a1-2)[GalNAc(a1-3)]Gal(b1-4)GlcNAc(b1-2)Man(a1-3)[Fuc(a1-2)[GalNAc(a1-3)]Gal(b1-4)GlcNAc(b1-2)Man(a1-6)]Man(b1-4)GlcNAc(b1-4)GlcNAc
# In short: as §1
# [21] = target: Fuc(a1-2)[GalNAc(a1-3)]Gal(b1-4)GlcNAc(b1-2)Man(a1-3)[Fuc(a1-2)[GalNAc(a1-3)]Gal(b1-4)GlcNAc(b1-2)Man(a1-6)]Man(b1-4)GlcNAc(b1-4)[Fuc(a1-6)]GlcNAc
# In short: as §1
# [22] = target: Fuc(a1-2)[GalNAc(a1-3)]Gal(b1-4)GlcNAc(b1-3)Gal(b1-4)GlcNAc
# In short: as §1
# [23] = target: Fuc(a1-2)[GalNAc(a1-3)]Gal(b1-4)GlcNAc(b1-3)Gal(b1-4)GlcNAc(b1-3)Gal(b1-4)GlcNAc
# In short: as §1
# [24] = target: Fuc(a1-2)[GalNAc(a1-3)]Gal(b1-4)GlcNAc(b1-3)GalNAc
# In short: as §1
# [25] = target: Fuc(a1-2)[GalNAc(a1-3)]Gal(b1-4)GlcNAc(b1-3)[Fuc(a1-2)[GalNAc(a1-3)]Gal(b1-4)GlcNAc(b1-6)]GalNAc
# In short: as §1
# [26] = target: Fuc(a1-2)[GalNAc(a1-3)]Gal(b1-4)GlcNAc(b1-6)GalNAc
# In short: as §1
# [27] = target: Fuc(a1-2)[GalNAc(a1-3)]Gal(b1-4)[Fuc(a1-3)]GlcNAc
# In short: as §1
# [28] = target: Fuc(a1-2)[GalNAc(a1-3)]Gal(b1-4)[Fuc(a1-3)]GlcNAc(b1-3)GalNAc
# In short: as §1
# [29] = target: Fuc(a1-2)[GalNAc(a1-4)]Gal(b1-4)GlcNAc
# In short: as §1
# [30] = target: Fuc(a1-2)[GalNAc(b1-3)]Gal
# In short: as §1
# Fuc(a1-3)GlcNAc = target: Fuc(a1-3)GlcNAc
# In short: as §1
# [31] = target: Fuc(a1-3)[Gal(b1-4)]Glc6S
# In short: as §1
# [32] = target: Fuc(a1-3)[Gal(b1-4)]GlcNAc
# In short: as §1
# [33] = target: Fuc(a1-3)[Gal(b1-4)]GlcNAc(b1-2)Man
# In short: as §1
# [34] = target: Fuc(a1-3)[Gal(b1-4)]GlcNAc(b1-2)Man(a1-3)[Fuc(a1-3)[Gal(b1-4)]GlcNAc(b1-2)Man(a1-6)]Man(b1-4)GlcNAc(b1-4)GlcNAc
# In short: as §1
# [35] = target: Fuc(a1-3)[Gal(b1-4)]GlcNAc(b1-2)Man(a1-3)[Fuc(a1-3)[Gal(b1-4)]GlcNAc(b1-2)Man(a1-6)]Man(b1-4)GlcNAc(b1-4)[Fuc(a1-6)]GlcNAc
# In short: as §1
# [36] = target: Fuc(a1-3)[Gal(b1-4)]GlcNAc(b1-3)Gal(b1-3)[Fuc(a1-4)]GlcNAc
# In short: as §1
# [37] = target: Fuc(a1-3)[Gal(b1-4)]GlcNAc(b1-3)Gal(b1-4)[Fuc(a1-3)]GlcNAc
# In short: as §1
# [38] = target: Fuc(a1-3)[Gal(b1-4)]GlcNAc(b1-3)Gal(b1-4)[Fuc(a1-3)]GlcNAc(b1-3)Gal(b1-4)[Fuc(a1-3)]GlcNAc
# In short: as §1
# [39] = target: Fuc(a1-3)[Gal(b1-4)]GlcNAc(b1-3)GalNAc
# In short: as §1
# [40] = target: Fuc(a1-3)[Gal(b1-4)]GlcNAc(b1-6)GalNAc
# In short: as §1
# [41] = target: Fuc(a1-3)[Gal(b1-4)]GlcNAc(b1-6)[Gal(b1-3)GlcNAc(b1-3)]Gal(b1-4)Glc
# In short: as §1
# [42] = target: Fuc(a1-3)[Gal(b1-4)]GlcNAc6S
# In short: as §1
# [43] = target: Fuc(a1-3)[Gal3S(b1-4)]Glc
# In short: as §1
# [44] = target: Fuc(a1-3)[Gal3S(b1-4)]GlcNAc
# In short: as §1
binder,measurement,setting,value
B1,glycan array binding signal (z-score),[1],-0.084
same,glycan array binding signal (z-score),[2],-0.282
same,glycan array binding signal (z-score),[3],-0.257
same,glycan array binding signal (z-score),[4],-0.198
same,glycan array binding signal (z-score),[5],-0.283
same,glycan array binding signal (z-score),[6],-0.157
same,glycan array binding signal (z-score),[7],-0.311
same,glycan array binding signal (z-score),[8],-0.16
same,glycan array binding signal (z-score),[9],-0.232
same,glycan array binding signal (z-score),[10],-0.356
same,glycan array binding signal (z-score),[11],-0.212
same,glycan array binding signal (z-score),[12],-0.175
same,glycan array binding signal (z-score),[13],-0.192
same,glycan array binding signal (z-score),[14],-0.363
same,glycan array binding signal (z-score),[15],-0.034
same,glycan array binding signal (z-score),[16],-0.237
same,glycan array binding signal (z-score),[17],-0.194
same,glycan array binding signal (z-score),[18],-0.227
same,glycan array binding signal (z-score),[19],-0.251
same,glycan array binding signal (z-score),[20],-0.264
same,glycan array binding signal (z-score),[21],-0.195
same,glycan array binding signal (z-score),[22],-0.188
same,glycan array binding signal (z-score),[23],0.144
same,glycan array binding signal (z-score),[24],-0.162
same,glycan array binding signal (z-score),[25],-0.289
same,glycan array binding signal (z-score),[26],-0.18
same,glycan array binding signal (z-score),[27],-0.04
same,glycan array binding signal (z-score),[28],0.127
same,glycan array binding signal (z-score),[29],-0.268
same,glycan array binding signal (z-score),[30],-0.127
same,glycan array binding signal (z-score),Fuc(a1-3)GlcNAc,-0.164
same,glycan array binding signal (z-score),[31],-0.007
same,glycan array binding signal (z-score),[32],-0.191
same,glycan array binding signal (z-score),[33],-0.18
same,glycan array binding signal (z-score),[34],0.601
same,glycan array binding signal (z-score),[35],0.036
same,glycan array binding signal (z-score),[36],-0.114
same,glycan array binding signal (z-score),[37],-0.148
same,glycan array binding signal (z-score),[38],-0.235
same,glycan array binding signal (z-score),[39],-0.069
same,glycan array binding signal (z-score),[40],0.168
same,glycan array binding signal (z-score),[41],-0.141
same,glycan array binding signal (z-score),[42],0.042
same,glycan array binding signal (z-score),[43],-0.073
same,glycan array binding signal (z-score),[44],-0.253
